Results published in PubChem BioAssay AID602310 (National Center for Advancing Translational Sciences (NCATS), 2012).
“And” between values parts separate entries of the source, which are not always exact repeats. Equal entries are not always repeated. About 310 (0.076%) of roughly 410,000 compounds were called active. The shares of active, inactive and inconclusive entries below differ from those in the screen. Calls come from the whole dose curve; as a rule, active = well fitted curve in the direction sought with a large enough effect; inconclusive = small, poorly fitted or top-dose-only effect; inactive = flat fitted curve, though single readings scatter. Potencies beside an inconclusive call are fits to weak or partial responses and may not hold up.

target: DNA dC->dU-editing enzyme APOBEC-3G (Homo sapiens) (UniProt Q9HC16); assay: qHTS for Inhibitors of Vif-A3G Interactions: qHTS; settings: HeLa A3G-eYFP + Vif (tagged APOBEC3G with the HIV-1 protein that degrades it), YFP fluorescence, overnight; series mostly up to 46.1 µM; activity, negative = active: at the top concentration; note: nearly all actives have a fitted effect of over 60% in size;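 for activity, negative = active: hits raise eYFP signal because A3G escapes Vif-driven loss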
Procedure, shortened: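 Read-out is eYFP fluorescence (Ex 488/Em 500-530) from Vif-expressing HeLa A3G-eYFP cells; more signal means A3G escaped Vif-mediated degradation. Cells plated overnight, compound pinned in, incubated overnight at 37 deg C.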
% is set by controls: 0 for no effect and ±100 for the full control effect; potency is the fitted concentration of half-maximal effect; tags give direction and shape of the fitted curve.

Chain of UniProt Q9HC16 (Q9HC16 whole entry, looked up): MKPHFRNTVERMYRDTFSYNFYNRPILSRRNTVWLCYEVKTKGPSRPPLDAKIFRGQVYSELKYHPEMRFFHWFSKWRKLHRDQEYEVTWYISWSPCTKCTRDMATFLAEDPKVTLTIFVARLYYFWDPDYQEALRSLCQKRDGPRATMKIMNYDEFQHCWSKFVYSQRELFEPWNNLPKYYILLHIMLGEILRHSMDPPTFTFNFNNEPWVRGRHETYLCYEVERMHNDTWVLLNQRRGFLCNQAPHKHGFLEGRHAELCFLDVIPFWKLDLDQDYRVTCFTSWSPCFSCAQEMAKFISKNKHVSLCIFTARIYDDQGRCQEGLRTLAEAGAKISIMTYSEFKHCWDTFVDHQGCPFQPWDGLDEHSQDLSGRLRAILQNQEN

Structure (SMILES) | activity, negative = active | Potency
CN(C)C(=S)Nn1c(-c2ccccc2)nc2ccccc2c1=O | inactive: -0.318% | 
Cc1nn(-c2ccccc2)c2c1N(CCCC(=O)NCc1ccccc1)C(=O)CS2 |  | inconclusive: 12.6 µM [inhibitor, single point]
CCc1cc2c(cc3c(=O)n(CC(=O)NC4CCCCC4)ncn32)s1 | inactive: 0.571% | 
O=C(/C=C/c1ccc(Br)cc1)c1ccc(NC2=NCCCS2)cc1 |  | inconclusive: 25.1 µM [inhibitor, single point]
CC(=O)c1cccc(Nc2nn(-c3ccc(OC(F)(F)F)cc3)nc2C(C)=O)c1 | inactive: 2.65% | 
CN(C)c1ccc(/C=C/c2cc[n+](C)cc2)cc1 |  | inconclusive: 11.2 µM [inhibitor, partial curve, poor fit]
Cc1nc2c(OCc3cccc(Cl)c3)cccn2c1N(C)CC1CC1 |  | inconclusive: 25.1 µM [inhibitor, single point]
O=C(C=Cc1ccccn1)c1ccccc1 |  | inconclusive: 35.5 µM [inhibitor, single point]
CCn1c(=O)c(=O)[nH]c2cc(C(=O)NC3CCCc4ccccc43)ccc21 (stereo not drawn) |  | inconclusive: 35.5 µM [inhibitor, single point]
COc1ccc(N(CC(=O)Nc2cc(Cl)ccc2C)S(=O)(=O)c2c(C)noc2C)cc1 |  | inconclusive: 2.51 µM [inhibitor, partial curve, poor fit] and inconclusive: 2.82 µM [inhibitor, partial curve, poor fit]
COc1ccc(-c2noc(-c3ccc(NC4CCCCC4)c([N+](=O)[O-])c3)n2)cc1 | inactive: -2.39% | 
CCCN(C(=O)COc1cc(=O)n(CC)c2ccccc12)c1ccc(C(C)C)cc1 | inactive: -5.64% | 
Cc1cc(OC(C)C)nc(NCc2ccccc2)n1 |  | inconclusive: 11.2 µM [inhibitor, single point]
COc1cc(C(=S)N2CCN(c3cccc(Cl)c3)CC2)ccc1O |  | inconclusive: 3.16 µM [inhibitor, single point]
O=C(NCCc1ccc(F)cc1)c1coc(=O)c(Br)c1 |  | inconclusive: 35.5 µM [inhibitor, single point]
COc1cccc2c1Oc1ncccc1N(C(=O)CCC(=O)NC(C)C)C2 | inactive: -7.16% | 
CCN(CC)S(=O)(=O)c1ccc(NC(=O)c2c(C)oc3ncnc(N4CCOCC4)c23)cc1 | inactive: -0.364% | 
Cc1cc(C)cc(C(=O)NC(CC(N)=O)c2ccc(NC3CCCCC3)c([N+](=O)[O-])c2)c1 (stereo not drawn) |  | inconclusive: 35.5 µM [inhibitor, single point]
C=CCN1C(=O)/C(=C/c2ccc(OC(C)=O)c(OCC)c2[N+](=O)[O-])SC1=S | inactive: -1.11% | 
COc1cc(C(=O)N2c3ccccc3CC2C)cc(OC)c1OC (stereo not drawn) |  | inconclusive: 35.5 µM [inhibitor, single point]
Cc1ccc(O)c(NC(=O)c2cc(-c3ccccc3Cl)on2)c1 | inactive: -4.85% | 
Cc1cccc2cc3c(N)c(C(=O)N4CCOCC4)sc3nc12 |  | inconclusive: 10 µM [inhibitor, partial curve, poor fit]
Cc1cccc(N=C2NC(=O)/C(=C/C=C/c3ccco3)S2)c1C |  | inconclusive: 15.8 µM [inhibitor, single point]

Structure (SMILES) | activity, negative = active | Potency
CN(C)CCOc1ccc2c(c1)C(=O)C(=Cc1ncc([N+](=O)[O-])n1C)C2 |  | active: 11.2 µM
CCOC(=O)N1CCN(c2c(NCc3ccc(F)cc3)c(=O)c2=O)CC1 |  | inconclusive: 7.08 µM [inhibitor, partial curve, poor fit]
COc1ccc(CC(=O)Nc2ccc(S(=O)(=O)N3CCCC3)cc2)cc1OC | inactive: 3.75% | 
COc1ccc(C)cc1N(CC(=O)Nc1cccnc1)S(=O)(=O)c1ccccc1 | inactive: -6.88% | 
CCOc1ccc(C(=O)CC(C(=O)O)N2CCCCC2)cc1 (stereo not drawn) |  | inconclusive: 35.5 µM [inhibitor, single point]
Cn1c(=O)c(NC2CCCCC2)c2c3c(cccc31)C(=O)c1ccccc1-2 |  | inconclusive: 2.82 µM [inhibitor, partial curve, poor fit]
CCOC(=O)n1c(=O)n(Cc2ccc(OC)cc2)c2ccccc21 |  | inconclusive: 11.2 µM [inhibitor, single point]
Brc1ccccc1-c1nnc2sc(-c3ccc4c(c3)OCCO4)nn12 |  | inconclusive: 3.98 µM [inhibitor, full curve]
CCCCN(C)CC(O)Cn1cc(/C=C/C(=O)c2ccc(C)cc2)c2ccccc21 (stereo not drawn) |  | inconclusive: 22.4 µM [inhibitor, single point]
CCc1ccccc1NC(=O)c1cc2nc(-c3ccc(OC)c(OC)c3)cc(C(F)(F)F)n2n1 | inactive: -3% | 
O=C(NC(=S)Nc1ccc(S(=O)(=O)Nc2nccs2)cc1)c1ccc(F)c(F)c1 | inactive: 1.21% | 
CC1=CC(C)(C)N2C(=O)C3(C(C#N)=C(N)Oc4cc(C)oc(=O)c43)c3cc(C)cc1c32 (stereo not drawn) |  | inconclusive: 20 µM [inhibitor, single point]
COc1ccc(C2=Nn3c(nnc3-c3ccccc3OC)SC2)cc1OC1CCCC1 |  | inconclusive: 1 µM [inhibitor, full curve, poor fit]
Cc1cc(C)cc(Nc2c3c(nc4ncnn24)CCC3)c1 |  | inconclusive: 11.2 µM [inhibitor, partial curve]
CC(=O)C(=Nc1cccc(Cl)c1)NNc1ccccc1C |  | inconclusive: 20 µM [inhibitor, single point]
O=C(NCc1cccnc1)/C(=C\c1ccc(-c2ccc(Br)cc2)o1)S(=O)(=O)c1ccccc1 |  | inconclusive: 7.08 µM [inhibitor, partial curve, poor fit]
COc1ccc2c(c1)C(=O)N1[C@H]3c4cc(C)ccc4OC[C@@H]3[C@H](c3ccccc3)[C@]1(C)C(=O)N2 |  | inconclusive: 2.82 µM [inhibitor, full curve]
COc1ccc(Cl)cc1C1CC(=O)Nc2cc3c(cc21)OCCO3 (stereo not drawn) |  | inconclusive: 0.562 µM [inhibitor, full curve, poor fit]
Cc1c(/C=N\NC(=O)c2cc3ccccc3o2)c2ccccc2n1C |  | inconclusive: 2.51 µM [inhibitor, full curve]
CCOC(=O)C1=C(C)NC(C)=C(C(=O)OCC)C1C(=O)OCC(=O)NCCc1ccccc1 | inactive: -0.0049% | 
COc1cc(Cl)c(NC2=CC(=O)C(=O)c3ccccc32)c(OC)c1 |  | inconclusive: 2.24 µM [inhibitor, partial curve, poor fit]
COc1ccccc1N1C(=O)CC(Sc2n[nH]c(-c3cccc(C)c3)n2)C1=O (stereo not drawn) | inactive: 0.787% | 
Cc1c(C)n(C)c2ccc(C(=O)NCCc3ccc(Cl)cc3)cc12 | inactive: 6.75% | 

Structure (SMILES) | activity, negative = active | Potency
Cn1c(=O)c2ccccc2n2c(CCl)nnc12 |  | inconclusive: 35.5 µM [inhibitor, single point]
CC1=CC(C)(C)N(S(=O)(=O)c2ccc(C)cc2)c2ccccc21 |  | inconclusive: 3.98 µM [inhibitor, single point]
N#CC1(NC(=O)COC(=O)c2cc(O)c3ccccc3c2O)CCCCC1 |  | inconclusive: 25.1 µM [inhibitor, single point]
CC1(C(=O)NCc2cccnc2)Cc2c(-c3cccc(C(F)(F)F)c3)ccnc2O1 (stereo not drawn) |  | inconclusive: 11.2 µM [inhibitor, single point]
O=C(CSc1ccccc1)Nc1ccccc1C(=O)N1CCCC1 | inactive: -0.67% | 
CCCCS(=O)(=O)c1oc(-c2ccc(F)cc2)nc1S(=O)(=O)c1ccccc1 |  | inconclusive: 10 µM [inhibitor, partial curve, poor fit]
O=C(O)c1cccc(-n2c(/C=C/c3ccc([N+](=O)[O-])cc3)nc3ccccc3c2=O)c1 |  | inconclusive: 35.5 µM [inhibitor, single point]
O=C(Nc1cc(Cl)ccc1-n1cncn1)c1ccc([N+](=O)[O-])o1 |  | inconclusive: 22.4 µM [inhibitor, single point]
COC(=O)c1sc2cccc(F)c2c1S(=O)(=O)NCc1ccc(Cl)cc1 | inactive: -7.14% | 
CN1CCN(c2ccc(S(=O)(=O)N3CCCCC3)cc2NC(=O)/C=C/c2ccc(OC(F)F)cc2)CC1 |  | inconclusive: 35.5 µM [inhibitor, single point]
Cn1nc(C(F)(F)F)c(-c2cccc(C(F)(F)F)c2)c1NC(=O)CSCC(=O)O | inactive: 2.81% | 
O=C(C[n+]1cc(-c2ccc(Cl)cc2)n2c1CCCCC2)c1ccccc1 | inactive: 1% | 
COc1cccc(N(C(=O)Cn2nnc(-c3ccc(Cl)cc3)n2)C(C(=O)NCC2CCCO2)c2ccc(C)cc2)c1 (stereo not drawn) | inactive: -6.5% | 
CN(C)CCCNc1nccc(N2CCN(C)CC2)n1 | inactive: 3.8% | 
CC(C)CNS(=O)(=O)c1cc(C(=O)OCC(=O)N2CCOCC2)c(Cl)cc1Cl | inactive: 4.68% | 
O=C1c2ccccc2NC(c2ccc(Cl)cc2Cl)N1O (stereo not drawn) | inactive: -8.32% | 
C=C1CC(COc2ccc3c(C)c(Cl)c(=O)oc3c2)(c2ccccc2)OC1=O (stereo not drawn) |  | inconclusive: 6.31 µM [inhibitor, full curve]
COCCNC(=O)CSc1c2c(nc3ccc(Cl)cc13)CCCC2 |  | inconclusive: 35.5 µM [inhibitor, single point]
C=CCSC(=C(C#N)C#N)c1cc2c([nH]1)CCCC2 |  | inconclusive: 22.4 µM [inhibitor, single point]
Nc1cccc2c1C(=O)N(C(=O)/C=C/c1ccc(F)cc1)C2=O |  | inconclusive: 22.4 µM [inhibitor, single point]
CC(NC(=O)NC1CCCCC1)C(c1cccs1)N1CCN(Cc2ccccc2)CC1 (stereo not drawn) | inactive: -4.48% | 
O=C(Nc1ccc2c(c1)OCCO2)NC1(C(F)(F)F)Oc2ccccc2O1 |  | inconclusive: 35.5 µM [inhibitor, single point]
